According to the supplement of paper PMC12632987:
The full ranking holds about 4,500 sequences; the median of “median log2 fold change of GCK-ALFA target abundance (FLAG IP / Myc IP barcode read proportion)” is about 0.078, and the lowest 2% start at about -0.6. The list shows a part of the results.

B1: GBRAP_74_6558 (protein)
chain: VKEAIDALAAAVRATRVLRAEDLAAALAAATTPEAVEALGRALADVYAALRDQLRFDDPAAVADLLAELIDRLLEIGGDNEVIKTLTDLALDAEAAAAAA
B2: GBRAP_137_3675 (protein)
chain: SKVDITVEEEDGLTYITVKVEDPEKAEEFEEKLIDIAHEVGALAVAIERKEDGSLEVEIVVPEEKKEEALEKVLEVASEADEVNVKTIKDGKVTEEKIEK
B3: GBRAP_160_4597 (protein)
chain: SPETEKLIEEIDEIVEEAKKMIEGQSKEERIAIIKVMMGEILLELSLSPIVSDETEEKADEIADELIETIESNPDLSLEEIKALIEEAREKIIEAIKEDS
B4: GBRAP_39_5672 (protein)
chain: EEEEENENVVSYLEGVAAKYLYETGKSFEEAYEEAKKVLKEYAEKHPELKELLEELIKIAEEKGEEAKDVLIGVAVLIKEGTPDEEIKELIEKAIAYFKS
B5: GBRAP_96_7095 (protein)
chain: MLEEAKKLVKELIKALDTDPEKAEELAKKLLEFPVEVVTEALVEVVKKPEDAAKIAKLLLKLGDEKAEEVLLEAAEKAPGDISKAIIDAMEAYEKEQEAA
B6: GBRAP_11_2867 (protein)
chain: KKEELKKAAELAKEAIELLKKLLKEGVDNKELRKKIKELLKELIELLKKYGDESDAKIAEIALEDLKKAEEDPENAKEYVERALAALRVLYGNLLLRIDE
B7: GBRAP_95_7054 (protein)
chain: EDDRLAFEDHVEATDAAVELGDEEAARRHAARAVALFAAGGPLPFPKGISLEAAKLILAEAHRTADPATQAALLAEILAAAATEEDKAALRAHYAALLAA
B8: GBRAP_52_6314 (protein)
chain: MSERMEELARRLLELMLAGDEEGARALIRELVKTLSEEELLLLAEELARLAKTLDAEGLDALARLLELIEDEMEEEGVDERIIAEIRGIIITAIYEAEQR

Target: GABARAP, O95166
Assay: median log2 fold change of GCK-ALFA target abundance (FLAG IP / Myc IP barcode read proportion) (log2 ratio); each designed protein is fused to an ALFA-tag nanobody in HEK293 cells to bring the named protein to FLAG-tagged glucokinase (GCK); Myc marks an untargeted standard; higher = target protein stabilised (more abundant)
Details: target protein: 3xFLAG-MCP-GCK-ALFA reporter; HEK293 landing pad (RPLP)
How it was run: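 An ALFA-nanobody-fused binder library was recombined into HEK293 landing-pad cells and induced with 2 μg mL^−1 doxycycline. Cells were transfected with a plasmid expressing a FLAG-tagged target and a Myc-tagged standard. After 48 h, lysates underwent anti-FLAG and anti-Myc immunoprecipitation, and circular RNA barcodes were reverse transcribed, amplified and sequenced. Target abundance is the per-binder median log2 ratio of FLAG to Myc barcode read proportions. Barcodes needed ≥10^−7 proportion in both replicates, binders ≥3 barcodes per replicate, and a 10^−6 pseudocount was added; the two replicates were pooled.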

GABARAP, O95166, sequence (O95166 whole entry, the tested form may be a part): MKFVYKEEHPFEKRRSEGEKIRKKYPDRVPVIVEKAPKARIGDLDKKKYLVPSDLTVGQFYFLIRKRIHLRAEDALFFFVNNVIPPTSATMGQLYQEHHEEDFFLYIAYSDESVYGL

| Binder | median log2 fold change |
| --- | --- |
| B1 | 0.11 |
| B2 | -0.045 |
| B3 | -0.0222 |
| B4 | 0.309 |
| B5 | 0.344 |
| B6 | 0.253 |
| B7 | 0.269 |
| B8 | -0.236 |
